Test results from ChEMBL document CHEMBL4888484, “Replenishing the malaria drug discovery pipeline: Screening and hit evaluation of the MMV Hit Generation Library 1 (HGL1) against asexual blood stage Plasmodium falciparum ,using a nano luciferase reporter read-out” (2022).
Screen size: about 150,000 compounds; about 540 (0.36%) showed an effect of 50% or more. The list shows a part of the results.

tested on: Plasmodium falciparum; assay: Primary screen in NF54 nanoGlo assay, in single point, at 2uM, 72h; a lower Z score goes with more inhibition; format: functional, Erythrocyte; settings: timepoint 72 hour

| Compound | % Inhibition [%] | Z score |
| --- | --- | --- |
| C[C@H]1[C@@H](NC(=O)COCc2cccc(Cl)c2)CCS1(=O)=O | -7 | 0.96 |
| O=C(c1ccccc1)N1CCN(CCn2cnnc2)CC1 | -3 | 0.62 |
| c1ccc2cc(Nc3ccc4ccccc4c3)ccc2c1 | -8 | 1.27 |
| C=C(C)COCCNC(=O)Nc1cccc(N(C)CC)c1 | -3 | 0.35 |
| c1ccc(CCCOC2CN(c3nc4ccccc4o3)C2)cc1 | -15 | 1.83 |
| COc1ccc(NC(=O)Nc2ccc(N3CCN(Cc4ccccc4)CC3)c(C(=O)NC3CCCCC3)c2)c(OC)c1 | -6 | 0.69 |
| CC(C)[C@H]1CN(C(=O)c2n[nH]c3c2CN(C)CC3)C[C@@H]1NC(=O)N(C)C | -5 | 0.7 |
| Cc1cccn2cc(C(=O)N[C@H]3CCN(Cc4cscn4)C[C@@H]3O)nc12 | -18 | 1.68 |
| C1CC2(C1)CC(NC1CCOC(C3CC3)C1)C2 (centres undefined) | 6 | -0.65 |
| Cc1onc(C(=O)N(CCN(C)C)C2CCOCC2)c1COc1ccccc1 | -1 | 0.21 |
| O=C(c1c[nH]cn1)N1CC[C@@H](c2ccccc2Cl)S(=O)(=O)CC1 | -13 | 2.24 |
| CC1(C)CO[C@@H](CS(=O)(=O)NCc2nccn2C(F)F)C1 | -14 | 2.1 |
| CCOC1CC(CC(=O)NCCc2c[nH]c3ncccc23)C1 (centres undefined) | -1 | 0.22 |
| O=C(Cc1cccs1)NCCOc1cc(N2CCCC2)ncn1 | 13 | -1.76 |
| CC(O)(CN1CCCC(Cn2cncn2)C1)C(F)(F)F (centres undefined) | -20 | 2.81 |
| C=CCC(CC)NC(=O)Nc1ccn(C(C)COC)n1 (centres undefined) | -5 | 0.58 |
| O=c1cnc2cc(S(=O)(=O)N3CCCCCCC3)ccc2[nH]1 | -1 | 0.14 |
| CC(C)c1ccc(S(=O)(=O)[C@@H](CN)c2ccc(N(C)C)cc2)cc1 | -4 | 0.46 |
| C=CCCC(=O)N1CC[C@H](OCC2CC2)C1 | -17 | 2.7 |
| Cn1cccc1C(=O)NC1CCN(c2cc3c(nn2)CCCC3)CC1 | -17 | 2.88 |
| Cc1cc(=O)c(C(=O)N(Cc2ccsc2)C2CCCC2)c(C)[nH]1 | -4 | 0.66 |
| COC(=O)CCN(Cc1nc2c(F)cccc2[nH]1)C[C@H]1CCCO1 | -4 | 0.66 |

| Compound | % Inhibition [%] | Z score |
| --- | --- | --- |
| Brc1ccc([C@@H]2CCCN2c2cncc3nncn23)cc1 | -9 | 1.22 |
| Cc1cc2oc(-c3cc4ccccc4o3)c(CC(=O)O)c2c(=O)[nH]1 | 5 | -0.77 |
| CCn1nccc1[C@H]1OCC[C@@H]1C(=O)N1CCN(CC(F)F)CC1 | -12 | 2.02 |
| COc1ccc(N(C)C(=O)c2c(C)coc2C)nc1 | -10 | 1.29 |
| CN1c2cccnc2CN(Cc2ccccc2)CC[C@H]1CO | 32 | -3.63 |
| Cc1nc(NCC2(CO)CCC2)ccc1Cl | -10 | 1.11 |
| Cc1cc(C)c(C)c(OCc2nc(CN(C(=O)c3ccccc3)C3CC3)cs2)c1 | -15 | 1.63 |
| O=C(C[n+]1cccc2ccccc21)c1ccc(F)cc1 | -31 | 3.67 |
| O=C(NCc1cccc(C(F)(F)F)c1)c1ccc(CN2CCn3cccc3[C@H]2c2ccc3c(c2)OCCO3)o1 | -7 | 0.67 |
| Cc1nc[nH]c1-c1nccn1Cc1nnnn1-c1ccccc1 | 2 | -0.3 |
| CC(=O)Nc1cnn(Cc2nnc3n2CCCCC3)c1 | -12 | 1.27 |
| Cc1ccc(C(=O)Nc2cc(-c3noc(C)n3)sc2C)cc1 | 0 | -0.06 |
| O=C(NCc1sncc1Br)NCC1CCOCC1 | -9 | 1.35 |
| COc1ccc(C(=O)N2CCC(n3c(C)cnc3-c3ccncc3)CC2)cn1 | -17 | 2.26 |
| CC1=CCN(CCNS(=O)(=O)c2cnc3n2CCCC3)CC1 | -4 | 0.69 |
| CCc1ccccc1[C@@H]1C[C@H]1C(=O)N1CCCC1CN1CCCC1 (some centres undefined) | -6 | 0.67 |
| COC(=O)c1cc(OCC(=O)Nc2ccc(OC)cc2)c2cc(C)ccc2n1 | -9 | 1.45 |
| CNc1ncccc1C(=O)N(Cc1ccncc1)C[C@@H]1CCC(=O)N1 | -3 | 0.59 |
| COc1cccc2ncnc(N3CCO[C@H](c4nnc(C(C)C)o4)C3)c12 | -19 | 3.72 |
| O=S(=O)(C[C@H]1CCCCO1)Nc1ccc(-c2nnc3n2CCCC3)cc1 | 4 | -0.42 |
| CC(C)c1ccc2c(c1)N=C(c1ccncc1)N=C(c1cccs1)N2 | -10 | 1.18 |
| Cn1nc(-c2ccccc2)c2[nH]c(-c3ccoc3)nc21 | -8 | 1.18 |

| Compound | % Inhibition [%] | Z score |
| --- | --- | --- |
| COc1ccccc1N1CCN(C(=O)Cn2nc(N3CCOCC3)ccc2=O)CC1 | -12 | 1.32 |
| Cc1cccc(S(=O)(=O)Nc2cnc(C3CC3)nc2)c1Cl | 11 | -1.4 |
| COc1ccccc1OCC(=O)Nc1ccccc1Cc1nc(C)no1 | 4 | -0.68 |
| O=C(c1nc2ccccc2[nH]c1=O)N1C[C@H]2CC[C@@H](C1)N(CC1CC1)C2 | -8 | 0.82 |
| Cc1cc(NC(=O)C(=O)N2CCCC[C@@H]2CCO)no1 | -11 | 1.36 |
| C[C@@H](C(=O)NCc1noc(CCc2ccccc2)n1)c1ccccc1 | 10 | -1.21 |
| CCC(CC)NC(=O)COc1ccccc1OC | -12 | 1.54 |
| CC(C)CCOc1ccc(CCNC(=O)c2ncc[nH]2)cc1 | -9 | 1 |
| CCN(C[C@H]1CCOC1)C(=O)NCCn1ccnc1 | 2 | -0.27 |
| O=C(c1cc2ccccc2s1)N1CCC(n2c(=O)[nH]c3ccc(F)cc3c2=O)CC1 | -15 | 1.93 |
| CCCOc1ccc(C(=O)Nc2nc(-c3ccc(C)cc3)c(NC(=O)c3ccco3)s2)cc1 | -5 | 0.62 |
| Cc1cnc(CNC(=O)c2cnc(C3CC3)nc2C)cn1 | 3 | -0.53 |
| O=C1c2cc3ccccc3c(-c3ccccc3)c2C(=O)N1c1ccccc1 | 38 | -4.87 |
| COC(=O)C1CCCCCC1NC(=O)c1cc[nH]n1 (centres undefined) | 32 | -3.57 |
| CCc1ccccc1CNC(=O)Nc1cccc(C(=O)N(C)C)n1 | -14 | 2.11 |
| CCOc1ccc(C(=O)N2CCC3(CC2)NC(=O)c2cc(F)ccc2N3CC)cc1 | -1 | 0.19 |
| COc1ncccc1-c1nc(C)ncc1C(C)C | 12 | -1.63 |
| O=C(CCCc1ncc(-c2ccccc2)o1)N1CCNCCC12CCOCC2 | -16 | 2.69 |
| CCc1nc2cc(C(=O)N[C@H]3CCOC(C)(C)C3)cc(NC(=O)c3ccccc3OC)c2n1C | -1 | 0.21 |
| COC(=O)C1CCCCN1CCOC1CCCCO1 (centres undefined) | -11 | 1.9 |
| CCN1CCC2CCC(C1)N2C(=O)C(C)=Cc1ccc(OC)c(F)c1 (centres undefined) | 4 | -0.51 |
| O=C(Cc1nnc(-c2ccc(Br)cc2)o1)NCc1ccccc1 | -2 | 0.29 |

| Compound | % Inhibition [%] | Z score |
| --- | --- | --- |
| Cc1c(C(=O)NCCc2ccc(Cl)cc2)sc2ncnc(N(C)C3CCCCC3)c12 | -8 | 0.73 |
| N#Cc1ccc(C(NC(CC2CCOC2)c2ccccc2)C(N)=O)cc1 (centres undefined) | 2 | -0.35 |
| Cc1ccn2c(NCc3ccc(C#N)s3)nnc2c1 | -1 | 0.06 |
| COc1ccc(CN(C)Cc2nccs2)c(Cl)c1OC | -2 | 0.37 |
| COCCN1CC(=O)N[C@H]2CN(C(C)C)C[C@@H]2OCc2cccc(c2)Oc2cc(ccc2OC)CCC1=O | -10 | 1.24 |
| CN(CC[C@H]1CCCCO1)C(=O)Nc1cccc(N2C(=O)CN(C)C2=O)c1 | 6 | -0.88 |
| Fc1cccnc1NCc1nnc2n1CCCCC2 | -15 | 2 |
| N#Cc1ccc(CN(Cc2cccc(F)c2)c2ccc3nnnn3n2)cc1 | -3 | 0.37 |
| Cc1ccn(CC(=O)N2CCCN(CC(C)C)[C@H](c3nc(C)no3)C2)n1 | 3 | -0.47 |
| CCN(CC)Cc1cnc2c(C(=O)N(C)Cc3ccccn3)cnn2c1 | -11 | 1.35 |
| C[C@H](Oc1cccc2ccccc12)C(=O)NCc1csc(=O)[nH]1 | -10 | 1 |
| CC(C(=O)Nc1ncccn1)N1CCCC1Cn1cccn1 (centres undefined) | 38 | -5.85 |
| C[C@H]1C(=O)Nc2ccccc2CN1Cc1nnnn1C(C)(C)C | 6 | -0.91 |
| N#Cc1ccc(N2CCC=C(F)C2)nc1 | -3 | 0.51 |
| CCc1ncnc(N(C)Cc2ncc(Br)cn2)c1F | -4 | 0.68 |
| O=C(NC(c1ccccc1)[C@H]1C[C@@H](O)C1)c1cc(CO)ccn1 (some centres undefined) | 0 | 0.04 |
| CC(=O)N1CCC(CNC(=O)c2cc[nH]c2C2CC2)CC1 | -6 | 0.75 |
| O=S(=O)(NCCc1n[nH]c(Cc2ccc(F)cc2)n1)c1ccccc1 | -3 | 0.64 |
| O=C(NCC1(O)CCCC1)C1CC2CCC1O2 (centres undefined) | -2 | 0.25 |
| COc1cccc(CNC[C@H]2COCc3nc4ccc(C)cc4n32)n1 | 0 | 0.01 |
| Cc1c(CNC(=O)C(C)(C)[C@H](O)c2cccc(O)c2)cnn1C | -14 | 1.66 |
